Measurements taken from ChEMBL document CHEMBL1201862, “PubChem BioAssay data set” (2004).
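Results reflect a 48-hour exposure of cells in 96-well plates to compound at five concentrations. GI50 marks 50% less growth.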 Active and inactive are the calls of the source. Rule as the data show it: active = GI50 up to about 1.1 µM and inactive = higher.

tested on: NCI-H322M; experiment: DTP human tumour cell line panel, 48 h

| SMILES | GI50 |
| --- | --- |
| CC(=O)O[C@H]1C[C@H](O[C@H]2[C@@H](O)C[C@H](O[C@H]3[C@@H](O)C[C@H](O[C@H]4CC[C@@]5(C)[C@H](CC[C@@H]6[C@@H]5CC[C@]5(O)[C@@H](C7=CC(=O)OC7)CC[C@]65O)C4)O[C@@H]3C)O[C@@H]2C)O[C@H](C)[C@H]1O[C@@H]1O[C@H](CO)[C@@H](O)[C@H](O)[C@H]1O | active: 0.354 µM |
| O=C(OCCO)C1CC2CC1C1(C2)OCCO1 (stereo not given) | inactive: > 100 µM |
| COc1cc(C2OC(N)=C(C#N)C3=C2C(C)CCC3)cc(OC)c1OC (stereo not given) | inactive: > 100 µM |
| S=C(Nc1ccc2cn[nH]c2c1)Nc1ccc2cn[nH]c2c1 | inactive: > 100 µM |
| CCOC(=O)NC(=O)c1cn(CCN2CCN(C(=O)CCCCCCCCCCNc3ncnc4[nH]cnc34)CC2)c(=O)[nH]c1=O | inactive: > 100 µM |
| CC/C=C(\C(=C/CC)[N+](=O)[O-])[N+](=O)[O-] | inactive: > 100 µM |
| CCOC(=O)NC(=O)c1cn(CCN2CCN(C(=O)CCCCCCCCCCC(=O)N3CCN(CCn4cc(C(=O)NC(=O)OCC)c(=O)[nH]c4=O)CC3)CC2)c(=O)[nH]c1=O | inactive: > 100 µM |
| NC(=O)NC(=O)CCC(NS(=O)(=O)c1ccccc1)C(=O)NC(N)=O (stereo not given) | inactive: > 100 µM |
| O=C1Oc2ccc([N+](=O)[O-])cc2N/C1=C\C(=O)c1ccccc1 | inactive: > 100 µM |
| COC(=O)C1C=CCON2CCc3c(n(C)c4ccccc34)C12 (stereo not given) | inactive: > 100 µM |
| COc1cc(C)c(/C=C2/N=C(c3ccccc3)OC2=O)c([N+](=O)[O-])c1OC | inactive: > 100 µM |
| Cc1cc2c(cc1C)C(=O)/C(=N/Nc1ccc(F)cc1)CCO2 | inactive: > 100 µM |
| O=C1c2c(Br)sc(Br)c2[C@@H](Cl)[C@H]1Cl | inactive: 19.1 µM |
| Cc1ccc(NC(=O)c2cccc([N+](=O)[O-])c2O)c(C)c1 | inactive: 19.8 µM |
| COc1ccc(NC(=O)C2C(=O)N(c3ccc(OC)cc3)C(=O)/C2=N\NC(N)=O)cc1 (stereo not given) | inactive: 39.6 µM |
| O=C1C(Cl)=C(N(C(=O)c2ccccc2)C(=O)c2ccccc2)C(=O)c2ccccc21 | inactive: > 100 µM |
| CC(=O)C1C(=O)C(=O)N(c2ccc(Cl)c(Cl)c2)C1=O (stereo not given) | inactive: > 100 µM |
| CC1=C(/C=C/C2=CC(=C\C(=O)O)/CC(C3=C(C)CCCC3(C)C)C2)C(C)(C)CCC1 (stereo not given) | inactive: 12.6 µM |
| O=C1/C(=C/c2ccccc2)CCc2ccc([N+](=O)[O-])cc21 | inactive: > 100 µM |
| COc1cc2c(c(OC)c1OC)-c1ccc(SC)c(=O)cc1[C@@H](NCc1ccccc1[N+](=O)[O-])CC2 | active: 0.027 µM |
| COC(=O)[C@]1(CCC(C)=O)C(=O)C=CN([C@H](C)c2ccccc2)[C@@H]1Cc1ccc(OC)c(OCc2ccccc2)c1I | inactive: 23.1 µM |
| O=C(CCC(=O)Nc1cccc(C(F)(F)F)c1)CC(=O)c1ccc2ccccc2c1 | inactive: > 100 µM |
| NC(=S)N/N=C1\CC(c2ccccc2)Nc2ccccc21 (stereo not given) | inactive: 63.2 µM |

| SMILES | GI50 |
| --- | --- |
| COc1ccc(-c2sc(Br)c3c2C(=O)C2OC(=O)NC32)cc1OC (stereo not given) | inactive: > 100 µM |
| COc1cc(-c2ccc(Nc3ccccc3C(=O)O)c(OC)c2)ccc1Nc1ccccc1C(=O)O | inactive: 25.6 µM |
| COc1ccc(NC(=O)C(=O)C(C(=O)c2ccccc2)C2OC(=O)c3ccccc32)c([N+](=O)[O-])c1 (stereo not given) | inactive: > 100 µM |
| CCOC(=O)Cc1nc2nn(Cc3ccccc3)cc2c(=O)[nH]1 | inactive: > 100 µM |
| O=C1CC(c2ccc[nH]2)=NN1c1ccccc1 | inactive: > 100 µM |
| Cn1nc2ccc(Nc3cc(=O)[nH]c4ccc5nn(C)nc5c34)cc2n1 | inactive: > 100 µM |
| O=C(Nc1ccc(Cl)cc1)c1cc(S(=O)(=O)Nc2nc3cccnc3[nH]2)c(SSc2cc(Cl)c(C(=O)Nc3ccc(Cl)cc3)cc2S(=O)(=O)Nc2nc3cccnc3[nH]2)cc1Cl | inactive: > 100 µM |
| Nc1nc(Cl)c(N)c(NCC2(CO)CCCC2)n1 | inactive: > 100 µM |
| CCOC(=O)CCC1(C(=O)OCC)CCCC1=O (stereo not given) | inactive: > 100 µM |
| N#Cc1ccccc1Sc1ccccc1N | inactive: > 100 µM |
| CCOC(=O)C(Cc1ccccc1)NC(=O)c1nc[nH]c1/N=N/N(C)C (stereo not given) | inactive: > 100 µM |
| COc1cc2oc(=O)cc(C)c2c(OC)c1O | inactive: > 100 µM |
| COc1c(Cl)c2c(c(OC)c1OC)-c1ccc(OC)c(=O)c(Cl)c1C(NC(C)=O)CC2 (stereo not given) | active: 0.316 µM |
| O=C1CCC2(c3ccccc3)Nc3ccncc3N12 (stereo not given) | inactive: > 10 µM |
| C=C1[C@H](OCC(C)C)[C@@H](O)[C@@H](OC(=O)c2cccnc2)C(C)(C)/C=C/[C@H](C)[C@H](OC(C)=O)[C@@]2(O)C[C@@](C)(OC(C)=O)[C@H](OC(=O)c3ccccc3)[C@@H]2[C@H]1OC(C)=O | inactive: > 3.05 µM |
| O=C1CSCC(=O)Nc2ccccc2N1 | inactive: > 100 µM |
| CC[C@]12C=CCN3CC[C@@]4(c5cc(Br)c(OC)cc5N(C)[C@H]4[C@@](O)(C(=O)NC(Cc4c[nH]c5ccccc45)C(=O)OC)[C@@H]1O)[C@@H]32 (stereo not given in full) | inactive: 8.05 µM |
| N#CCCN(CCCN(C(=O)Nc1ccc(NC(=O)N(CCCN(CCC#N)C(N)=O)c2ccccc2)cc1)c1ccccc1)C(N)=O | inactive: > 100 µM |
| c1ccc2c(c1)nc1ccccn12 | inactive: > 100 µM |
| c1nc(OCC2CCCCC2)c2nc[nH]c2n1 | inactive: 88.1 µM |
| CCCCCCCCCCCCCCCCCCOCC(CCP(=O)(CP(=O)(O)O)Oc1ccccc1)OCCCCCCCCCCCCCCCCCC (stereo not given) | inactive: > 100 µM |
| CSc1cc(-c2cc3ccccc3o2)oc(=O)c1C#N | inactive: > 100 µM |
| O/N=C1/C(=C/c2ccc(Cl)c(Cl)c2)CCCC1C(NO)c1ccc(Cl)c(Cl)c1 (stereo not given) | inactive: 14.4 µM |

| SMILES | GI50 |
| --- | --- |
| CN(C)/C(F)=P\C(F)(F)F (stereo not given) | inactive: > 100 µM |
| CCOC(=O)C1=C(C)OC2(O)C=CC(O)=C3C(=O)N(c4ccccc4)C(=O)C312 (stereo not given) | inactive: > 100 µM |
| CCC(=O)C(C)C(=O)C(=O)C(=O)OC (stereo not given) | inactive: > 100 µM |
| C/C(CC(=O)Nc1cc(C)ccc1C)=N\NC(=O)c1ccncc1 | inactive: > 100 µM |
| C1CC[C@H]2SSC3CCCC[C@H]3SSC2C1 (stereo not given in full) | inactive: > 100 µM |
| COc1ccc2ccc3c(c2c1)CN1CCc2cc(OC)c(OC)cc2C1C3 (stereo not given) | inactive: > 100 µM |
| CCOP(=O)(OCC)c1cc(-c2ccccc2)ccc1N | inactive: > 100 µM |
| ClCCCN1CCCCC1CCl (stereo not given) | inactive: > 100 µM |
| C=C(C)CNCCN | inactive: > 100 µM |
| COC(=O)c1c(C)cccc1C1CN=NC12Cc1ccc(C)cc1C2=O (stereo not given) | inactive: 49.9 µM |
| CCN(CC)c1c(C)c(C(=O)OC)nn1-c1ccccc1 | inactive: > 100 µM |
| Cc1cc2[nH]c(Cl)c(/C=C3\C(=O)Nc4ccccc43)c2cc1O | inactive: 5.79 µM |
| CC[C@H]1[C@@H](C)C=C[C@@H](C)N1S(=O)(=O)c1ccc(C)cc1 | inactive: > 100 µM |
| c1ccc2c(c1)N=c1ccccc1=P21c2ccccc2Nc2ccccc21 | active: 0.47 µM |
| CCOP(=O)(OCC)C(C#N)Cc1ccco1 (stereo not given) | inactive: > 10 µM |
| COc1cc(C(N)=O)c(OC)c(OC)c1OC | inactive: 87.5 µM |
| Cc1ccc(S(=O)(=O)N2CCC(=O)c3cc(Br)ccc32)cc1 | inactive: 32.8 µM |
| CC(C)c1ccc(C2C3=C(N=C4SCC(=O)N42)C(=O)c2ccccc23)cc1 (stereo not given) | inactive: > 100 µM |
| CSc1ccc(/C=C2\N=C(c3ccccc3)N(c3nc4c(Cl)cc(Cl)cc4s3)C2=O)cc1 | inactive: 25.5 µM |
| COc1ccc(C(SCCO)(c2ccccc2)c2ccc(OC)cc2)cc1 | inactive: 3.37 µM |
| O=[N+]([O-])C(=C1NCCN1)/C(Cl)=C(/Cl)N1CCOCC1 | inactive: > 100 µM |
| COc1ccc(OC)c2cc(C3(C)SCCCS3)ccc12 | inactive: > 100 µM |
| CC1=CC2C(C(C)C)CC1C1C(=O)OC(=O)C21 (stereo not given) | inactive: > 100 µM |

| SMILES | GI50 |
| --- | --- |
| CC1CC#CCOC(=O)CCCC1=O (stereo not given) | inactive: > 100 µM |
| COc1cc2c(cc1OC)C1=CCC(c3ccccc3)[N+]1(C)CC2 (stereo not given) | inactive: > 100 µM |
| CCCCCCNCCCNc1c2cc(OC)ccc2nc2cccc([N+](=O)[O-])c12 | active: 0.0325 µM |
| Cc1c(C(=O)CC(=O)C(=O)Nc2c(C(C)C)cccc2C(C)C)[n+]([O-])c2ccccc2[n+]1[O-] | inactive: 3.98 µM |
| CC1=CC(=O)C[C@]2(C)[C@@H](O)CC(C(C)CO)C[C@@H]12 (stereo not given in full) | inactive: > 100 µM |
| [O-][S+](Nc1ccccc1)c1ccc(-c2ccccc2)cc1 (stereo not given) | inactive: > 100 µM |
| CCOC(=O)c1sc2nc(SC)nc3c2c1NC(=O)CN3c1cccc(F)c1 | inactive: 21.2 µM |
| Brc1cc(CCOC2CCCCO2)c(-c2sccc2CCOC2CCCCO2)s1 (stereo not given) | inactive: > 57.9 µM |
| CCOC(=O)C1=NN(c2ccc([N+](=O)[O-])cc2)[C@@]2(C)C[C@]3(c4ccccc4)N(c4ccc([N+](=O)[O-])cc4)N=C(C(=O)OCC)N3c3ccccc3N12 | inactive: > 100 µM |
| O=C1C2=C(CCC2)Nc2cccc3ncn1c23 | inactive: > 100 µM |
| C=C1C(=O)OC2CCCCC3OC3C12 (stereo not given) | inactive: 21.2 µM |
| N=c1oc2ccccc2cc1C(=O)Nc1nccs1 | inactive: 68.1 µM |
| COc1ccc(/C=N/n2cnc3c(c2=O)S/C(=C2/SC(=S)N(c4ccc(C)cc4)C2=O)N3c2ccccc2)cc1 | inactive: > 100 µM |
| CC(C)(C)OC(=O)NCCCCC(N)NC(=O)c1ccccc1 (stereo not given) | inactive: > 100 µM |
| CC(C)(C)NC(=O)NC12CC3CC(CC(F)(C3)C1)C2 | inactive: > 100 µM |
| Cc1ccc(Nc2nc(N)nc3c2ncn3C2OC(CO)C(O)C2O)cc1 (stereo not given) | inactive: > 100 µM |
| CCn1c(=O)c(C(=O)O)c(Cl)c2cc3c(cc21)OCO3 | inactive: > 100 µM |
| O=C(c1ccccc1)[C@@H]1C[C@H](Sc2ccccc2)c2cc(Cl)ccc2N1 | inactive: 73.1 µM |
| CC1=NN(c2nc(N)nc(/C(C#N)=C\c3cccc([N+](=O)[O-])c3)n2)C(C)(C)C1 | inactive: 25.3 µM |
| COC(=O)CN(CC1O[C@@H]2OC(C)(C)O[C@@H]2C1NC(C)=O)C(=O)OCc1ccccc1 (stereo not given in full) | inactive: > 100 µM |
| O=C(Nc1cccc(Cc2cccc(NC(=O)c3ccccc3)c2)c1)c1ccccc1 | inactive: 81.8 µM |
